Data as given in article PMC4336329 (PLoS ONE, 2015).
The campaign covered roughly 310,000 compounds. About 14,000 (4.5%) showed an effect of 50% or more. Effects have a minus sign here. Some of the results follow.

Target: human ether-à-go-go-related gene (hERG) potassium channel (human, UniProt Q12809)
Assay: primary screen, population patch clamp on CHO cells stably expressing hERG
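Further: peak tail current of the secondary pulse compared with the same well before compound.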

Sequence of human ether-à-go-go-related gene (hERG) potassium channel (Q12809 whole entry, looked up): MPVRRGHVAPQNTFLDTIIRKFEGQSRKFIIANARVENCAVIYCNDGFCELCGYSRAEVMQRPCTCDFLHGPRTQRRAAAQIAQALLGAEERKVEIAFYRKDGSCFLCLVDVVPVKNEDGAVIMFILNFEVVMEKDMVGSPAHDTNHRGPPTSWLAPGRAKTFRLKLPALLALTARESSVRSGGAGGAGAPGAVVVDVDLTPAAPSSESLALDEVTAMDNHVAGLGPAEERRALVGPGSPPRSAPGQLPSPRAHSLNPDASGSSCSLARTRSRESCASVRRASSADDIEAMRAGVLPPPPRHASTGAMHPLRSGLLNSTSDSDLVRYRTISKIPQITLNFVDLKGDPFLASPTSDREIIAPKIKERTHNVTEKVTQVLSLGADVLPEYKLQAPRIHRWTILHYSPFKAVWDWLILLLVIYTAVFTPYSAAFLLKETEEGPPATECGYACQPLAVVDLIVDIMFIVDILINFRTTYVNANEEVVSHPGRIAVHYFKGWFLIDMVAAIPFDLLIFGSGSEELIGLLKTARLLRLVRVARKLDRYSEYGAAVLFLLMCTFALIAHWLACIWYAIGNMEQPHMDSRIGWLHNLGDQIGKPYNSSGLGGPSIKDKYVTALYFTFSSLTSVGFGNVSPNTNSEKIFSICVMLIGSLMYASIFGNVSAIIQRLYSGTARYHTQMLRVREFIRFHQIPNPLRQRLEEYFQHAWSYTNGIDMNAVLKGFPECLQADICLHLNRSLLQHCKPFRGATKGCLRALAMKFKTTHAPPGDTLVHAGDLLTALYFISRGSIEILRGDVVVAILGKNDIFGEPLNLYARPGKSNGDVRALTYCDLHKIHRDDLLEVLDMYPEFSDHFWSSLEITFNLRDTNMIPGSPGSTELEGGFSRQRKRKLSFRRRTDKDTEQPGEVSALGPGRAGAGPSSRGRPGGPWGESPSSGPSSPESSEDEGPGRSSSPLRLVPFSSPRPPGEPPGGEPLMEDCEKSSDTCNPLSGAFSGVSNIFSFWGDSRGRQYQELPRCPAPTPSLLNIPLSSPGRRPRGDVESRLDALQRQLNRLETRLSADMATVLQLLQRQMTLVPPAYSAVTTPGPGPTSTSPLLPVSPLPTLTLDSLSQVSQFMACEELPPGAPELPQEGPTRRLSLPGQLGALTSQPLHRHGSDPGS

| Structure (SMILES) | hERG current change (%, negative = inhibition) at 10uM [%] |
| --- | --- |
| COc1ccc(CNC(=O)C(=O)NCC2OCCN2S(=O)(=O)c2ccc(C)cc2)cc1 (stereo not shown) | 28.1 |
| FC(F)(F)c1nnc2ccc(Cl)nn12 | 16.7 |
| O=S(=O)(NCc1csc(-c2cccs2)n1)c1ccc(Cl)cc1 | -25 |
| Cc1ccc2nc(-c3ccccc3)cc(C(=O)N3CCN(c4ccccc4O)CC3)c2c1 | -3.24 |
| COc1ccc(NC(=O)CN2CCc3ccccc3C2)c([N+](=O)[O-])c1 | 25.4 |
| O=c1[nH]c(C2CCN(S(=O)(=O)c3ccc(S(=O)(=O)NC4CC4)cc3)CC2)nc2c1nnn2Cc1cccc(F)c1 | -16.5 |
| C=CCSc1nc2sc(-c3ccccc3)cc2c(=O)n1N | 21.6 |
| CCN(CC)S(=O)(=O)c1ccc(C(=O)OCCNC(=O)c2cccnc2)cc1 | -2.68 |
| CC(C)C[C@H](NC(=O)[C@@H](O)[C@H](N)Cc1ccccc1)C(=O)O | 11.4 |
| CCOC(=O)C1(CCOC)CCN(Cc2nc(C(C)C)cs2)CC1 | 41 |
| Cc1scc(C(=O)NNC(=S)NCC(C)C)c1C | 19.5 |
| O=[N+]([O-])c1ccc(-c2nc3ccc([N+](=O)[O-])cc3[nH]2)cc1 | -27.9 |
| O=C(c1ccccc1)c1c[nH]c(C(=O)NCCCn2ccnc2)c1 | 5.27 |
| O=[N+]([O-])c1cccc(/C=N/N=C\c2ccccc2)c1 | 29 |
| On1nnc2ccccc21 | 4.77 |
| COc1ccc(-c2oc3cccnc3c2C#CCO)cc1 | 9.84 |
| COc1ccc(C2Nc3ccccc3C(=O)N2NC(C)=O)cc1OC (stereo not shown) | 17.6 |
| Cc1ccc(NC(=O)C2c3ccccc3Oc3ccccc32)nc1 | 4.54 |
| CCOc1ccc(CC2c3cc(OCC)c(OCC)cc3CCN2C(=O)CN2CCN(C)CC2)cc1OCC.Cl (stereo not shown) | 3.3 |
| COc1ccc(/C=N/Nc2cc(C)nc3ccccc23)cc1 | -63.3 |
| O=c1cc(N/N=C/c2ccccc2)[nH]c(=O)[nH]1 | 1.85 |
| S=c1[nH]nc(-c2ccc(Cl)cc2)n1/N=C/c1cccs1 | 16.8 |

| Structure (SMILES) | hERG current change (%, negative = inhibition) at 10uM [%] |
| --- | --- |
| CCN(c1cc(C)cc(C)c1)S(=O)(=O)c1nnc(NC(=O)c2ccco2)s1 | 11.2 |
| CCOC(=O)C1=CN(CC2CCCO2)C=C(C(=O)OCC)C1c1ccccc1C(F)(F)F (stereo not shown) | -64.7 |
| Nc1nc2ccccc2nc1N1CCCC1 | -12 |
| Cc1c(CCC(=O)O)c(=O)oc2cc3oc4c(c3cc12)CCCC4 | 11 |
| CCN(CC)S(=O)(=O)c1cccc(-c2nnc(SCCOc3ccccc3)o2)c1 | -11.4 |
| Cc1ccc(NC(=O)Cn2cncc2-c2ccc([N+](=O)[O-])cc2)cc1C | -12.8 |
| CCn1nc(C)c(CN2CCCC(C(=O)c3cccc(OC(C)C)c3)C2)c1C (stereo not shown) | -39.5 |
| Cc1ccnc(N2CCCC(C(=O)Nc3cc(F)ccc3C)C2)n1 (stereo not shown) | 2.66 |
| O=C1CCN(CCCc2ccccc2)CCN1CCO | 2.01 |
| O=C(/C=N/O)Nc1cccnc1 | 15.7 |
| O=c1[nH]cnc2onc(-c3ccc(F)cc3)c12 | 12.5 |
| C=CCN1C(=O)/C(=C/c2ccc(-c3ccc(F)cc3)o2)SC1=S | 3.08 |
| Cc1ccc(CNC(=O)c2oc3ccc(S(=O)(=O)N4CCOCC4)cc3c2C)cc1 | -10.5 |
| CCCCn1c(CN2CCN(c3ccccc3)CC2)nc2c1c(=O)n(C)c(=O)n2C | -45.7 |
| O=C(N/N=C/c1ccoc1)c1ccccc1 | 17.9 |
| Cc1c(CN2CCC(C)CC2)c(=O)n(-c2ccccc2)n1C | 7.28 |
| O=C(NC(=S)Nc1nc2c(s1)CSc1ccccc1-2)c1ccccc1 | 1.22 |
| CCOC(=O)c1ccccc1N/C=C1\CCCCC1=O | -13.3 |
| CC(C)(CNCC(O)c1ccccc1)N1CCOCC1 (stereo not shown) | -2.9 |
| COc1ccc(C)cc1NC(=O)c1nnn(CCc2ccccc2)c1N | -6.8 |
| Cc1cc(=O)oc2c1c(C)nn2-c1ccc(Br)cc1 | 19.3 |
